The whole screen tested about 150,000 compounds, of which about 540 (0.36%) showed an effect of 50% or more. This is one part of the list.

This experiment deals with Plasmodium falciparum. In words: Primary screen in NF54 nanoGlo assay, in single point, at 2uM, 72h; a lower Z score goes with more inhibition. As to conditions: timepoint 72 hour. Type of experiment: functional, Erythrocyte.
Usually % Inhibition stands for the change of the read-out against control, counted positive when it falls. As to `COc1ccc([C@H]2CC(=O)Nc3ncn(-c4ccc(C(F)(F)F)cc4)c32)cc1OC`, the “% Inhibition” value was -1% and the Z score is given as 0.13.

Regarding `CCn1ccc(C(=O)Nc2cc(-c3c(C)c4ccccc4n3CC)n[nH]2)n1`, the “% Inhibition” value is given as -7% and the Z score stood at 0.76.

On to `N#CC1(c2ccc(Cl)cc2Cl)CCC(=O)CC1`, for which the “% Inhibition” value is on record as -5% and the Z score is on record as 0.63.

On to `OCCOc1cncc(N2CCOC3(CCCCCC3)C2)n1`, for which the “% Inhibition” value was 8% and the Z score is -0.67.

Take `CS(=O)(=O)c1cccc(OCCn2ccnn2)c1`: the “% Inhibition” value is 1% and the Z score is -0.15.

`Cc1nn(-c2ccc(Cl)cc2)cc1-c1noc(C(=O)NC2CCN(Cc3ccccc3)CC2)n1`: the “% Inhibition” value was 18% and the Z score is -2.15.

As to `OCc1ccc(Cl)c(NCc2noc([C@@H]3COc4ccccc4O3)n2)c1`, the “% Inhibition” value is given as -2% and the Z score is on record as 0.31.

For the compound `CC(C)(C)n1ncnc1CN1CCCC1CC(O)c1cccs1` (centres undefined), the “% Inhibition” value stood at 3% and the Z score is -0.55.

`O=C(CCC1CCCC1)N[C@H]1CCCCNC1=O`: the “% Inhibition” value came to 6% and the Z score is listed as -0.53.

Consider `Cc1ccc(C(=O)N2CCc3c(c(-c4nncn4CC4CC4)nn3C)C2)cn1`, for which the “% Inhibition” value is recorded as -5% and the Z score is 0.67.

`c1ccc(CNCCN2CCc3ccccc3C2)cc1`: the “% Inhibition” value is given as -11% and the Z score is 1.86.

Consider `O=C(Nc1ccc2c(c1)OCCCO2)c1ccc2c(c1)CCCC2`, for which the “% Inhibition” value is recorded as -11% and the Z score was determined as 1.37.

Consider `CC1CN(C(=O)c2cc(C(N)=O)c[nH]2)CC(C)N1` (centres undefined), for which the “% Inhibition” value is -10% and the Z score is recorded as 1.23.

Take `CC(C)N1C[C@@H](C(=O)N2CC(Oc3ccccc3F)C2)CC1=O`: the “% Inhibition” value is -5% and the Z score was determined as 0.71.

On to `CCc1nnc2ccc(S(=O)(=O)N(CC(=O)OC)c3cc(F)cc(F)c3)cn12`, for which the “% Inhibition” value is -7% and the Z score worked out at 1.12.

Turning to `C#CCN(Cc1cccc(C)n1)S(=O)(=O)c1sccc1OC`, the “% Inhibition” value is on record as -1% and the Z score stood at 0.2.

Take `C[C@@H](c1ccc(Cl)cc1)N1CCc2c(O)nn(C)c2C1`: the “% Inhibition” value is -8% and the Z score turned out to be 0.71.

For `CCn1ccc(C(=O)N2CCCn3nc(-c4ccncc4)cc3C2)n1`, the “% Inhibition” value was -27% and the Z score stood at 5.09.

Turning to `O=C(COC1CCCCC1)Nc1nc2c(ccc3ccccc32)s1`, the “% Inhibition” value is reported as -10% and the Z score was determined as 1.94.

For the compound `CC[N+](CC)(CC(=O)OC1CC2CCC1(C)C2(C)C)CC(=O)OC1CC2CCC1(C)C2(C)C` (centres undefined), the “% Inhibition” value is given as 77% and the Z score is reported as -8.45.

Take `COC(=O)[C@H](C)NC(=O)n1ncc2ccccc21`: the “% Inhibition” value is on record as -15% and the Z score came to 3.02.

In the case of `CC1CC(C)CN(C2CCCCC2=O)C1` (centres undefined), the “% Inhibition” value was -6% and the Z score was 0.63.

Consider `CCC1Oc2cc(C(C)NCc3ccncc3Cl)ccc2NC1=O` (centres undefined), for which the “% Inhibition” value is -2% and the Z score is given as 0.22.

Take `O=C(c1ccccc1)N1CCC(N2CC3(CCCC3)[C@H]2c2ccccc2)CC1`: the “% Inhibition” value is reported as -5% and the Z score is on record as 0.84.

In the case of `CCOc1cc2c(cc1OCC)[C@H](c1ccc(OC)c3ccccc13)NCC2`, the “% Inhibition” value is on record as -1% and the Z score was 0.16.

On to `COc1ccc([C@H]2CN(C)C[C@@H]2NS(=O)(=O)N2CCCCC2)cc1`, for which the “% Inhibition” value is given as -4% and the Z score is 0.85.

For `O=C(N[C@@H]1CCCC[C@H]1NC(=O)C1CCN(C(=O)Cc2cccs2)CC1)c1ccccc1`, the “% Inhibition” value is recorded as -7% and the Z score is listed as 0.74.

For `Cc1cc(C(=O)Cn2cc(Cl)c(=O)[nH]c2=O)c(Cl)cc1F`, the “% Inhibition” value is -1% and the Z score is reported as 0.1.

Consider `N#C[C@@H](C(=O)NCc1ccc(OCc2cccnc2)cc1)c1nc2cc(F)ccc2s1`, for which the “% Inhibition” value is -2% and the Z score amounted to 0.25.

As for `CCOc1ccc(C(=O)N[C@H]2C[C@H](c3nnc(CO)n3CC)C2)o1`, the “% Inhibition” value was -17% and the Z score came out at 2.66.

In the case of `Cc1cc(C)n(-c2nnc(Nc3ccc(F)cc3C)c3ccccc23)n1`, the “% Inhibition” value is 10% and the Z score is on record as -1.94.

Consider `CCc1nccn1CCN1CCn2nc(CO)cc2C1`, for which the “% Inhibition” value is reported as -25% and the Z score is listed as 2.57.

For `COc1ccccc1OC(C)(C)C(=O)NCc1ncc[nH]1`, the “% Inhibition” value is 2% and the Z score is -0.26.

On to `Cc1cc(C(=O)N2CCOCC2)nn1CC(=O)N1CCCc2ccccc21`, for which the “% Inhibition” value was -6% and the Z score is 0.79.

For `Cc1cccc(OC2CN(C[C@H](O)C3CC3)C2)c1`, the “% Inhibition” value came out at 3% and the Z score is on record as -0.61.

Consider `c1cc2[nH]nnc2cc1NC1CCC2(CC1)CC2`, for which the “% Inhibition” value is reported as -5% and the Z score was 0.94.

For `CCOc1cc(CN[C@@H](C)c2ncn[nH]2)c(Cl)cc1OC(C)C`, the “% Inhibition” value is on record as -7% and the Z score was 0.98.

As for `Cc1nc(-n2nnc(C(=O)NCc3ccc4c(c3)OCO4)c2C)sc1C`, the “% Inhibition” value was -15% and the Z score came to 2.87.

As for `Cc1cc(N2CCN(c3nnc(C)c(C)c3C(N)=O)CC2)ncn1`, the “% Inhibition” value was -7% and the Z score was 1.17.

On to `COc1ccccc1S(=O)(=O)N(Cc1cccnc1)C1CC1`, for which the “% Inhibition” value was -1% and the Z score is 0.1.

Take `CCOC[C@H]1CCC2(CCN(S(=O)(=O)c3cc(F)cc(F)c3)CC2)O1`: the “% Inhibition” value came to 1% and the Z score is reported as -0.24.

Regarding `Cc1cc(-c2ccccc2)nc(Nc2nc(-c3ccccc3)c(CC(=O)O)s2)n1`, the “% Inhibition” value was 1% and the Z score is listed as -0.08.

These data come from ChEMBL document CHEMBL4888484, “Replenishing the malaria drug discovery pipeline: Screening and hit evaluation of the MMV Hit Generation Library 1 (HGL1) against asexual blood stage Plasmodium falciparum ,using a nano luciferase reporter read-out” (2022).
